# Results reported in paper PMC4336329 (PLoS ONE, 2015).
# The campaign covered roughly 310,000 compounds. About 14,000 (4.5%) showed an effect of 50% or more. Effects have a minus sign here. The list shows a part of the results.
# Target: human ether-à-go-go-related gene (hERG) potassium channel (human, UniProt Q12809)
# Test: primary screen, population patch clamp on CHO cells stably expressing hERG
# 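Note: peak tail current of the secondary pulse compared with the same well before compound.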
# Chain of human ether-à-go-go-related gene (hERG) potassium channel (Q12809 whole entry, looked up): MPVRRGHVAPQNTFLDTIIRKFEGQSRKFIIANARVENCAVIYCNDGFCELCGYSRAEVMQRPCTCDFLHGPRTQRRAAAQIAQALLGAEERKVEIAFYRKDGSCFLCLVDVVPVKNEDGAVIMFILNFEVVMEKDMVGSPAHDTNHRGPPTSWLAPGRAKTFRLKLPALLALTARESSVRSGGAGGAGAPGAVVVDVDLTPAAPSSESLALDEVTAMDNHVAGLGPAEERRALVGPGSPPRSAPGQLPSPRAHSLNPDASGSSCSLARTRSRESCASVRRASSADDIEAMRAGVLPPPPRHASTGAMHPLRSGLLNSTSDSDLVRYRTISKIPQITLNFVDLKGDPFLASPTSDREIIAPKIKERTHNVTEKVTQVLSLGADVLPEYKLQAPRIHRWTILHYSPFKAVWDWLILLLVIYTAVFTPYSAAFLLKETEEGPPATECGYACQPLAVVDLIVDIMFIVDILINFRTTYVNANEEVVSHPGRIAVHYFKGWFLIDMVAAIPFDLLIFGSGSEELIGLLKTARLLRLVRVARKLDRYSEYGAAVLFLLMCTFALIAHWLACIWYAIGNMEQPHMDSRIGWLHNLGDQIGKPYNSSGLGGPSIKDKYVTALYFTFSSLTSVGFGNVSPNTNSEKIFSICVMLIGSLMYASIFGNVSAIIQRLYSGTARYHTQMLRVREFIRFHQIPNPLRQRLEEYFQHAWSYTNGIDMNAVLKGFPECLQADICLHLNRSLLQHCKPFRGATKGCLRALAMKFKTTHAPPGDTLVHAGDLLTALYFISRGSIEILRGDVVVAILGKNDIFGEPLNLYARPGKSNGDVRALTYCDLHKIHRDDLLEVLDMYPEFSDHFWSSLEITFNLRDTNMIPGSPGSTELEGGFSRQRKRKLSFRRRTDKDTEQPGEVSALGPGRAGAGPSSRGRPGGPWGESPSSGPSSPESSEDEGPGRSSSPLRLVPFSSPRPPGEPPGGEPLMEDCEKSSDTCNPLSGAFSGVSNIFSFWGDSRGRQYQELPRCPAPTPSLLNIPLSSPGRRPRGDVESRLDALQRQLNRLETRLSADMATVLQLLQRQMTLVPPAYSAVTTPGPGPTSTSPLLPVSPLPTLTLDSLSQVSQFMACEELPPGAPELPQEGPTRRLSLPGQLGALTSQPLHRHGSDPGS
row,SMILES,"hERG current change (%, negative = inhibition) at 10uM [%]"
1,COc1ccc(N2CCN(C(=O)c3ccc(CNc4c(N5CCOCC5)c(=O)c4=O)cc3)CC2)cc1,-0.0849
2,COc1ccc2cc(C(=O)NCc3ccccc3)[nH]c2c1.Cl,21.2
3,COc1ccc2oc(=O)c(C(=O)NCc3ccccn3)cc2c1,3.99
4,Cc1ccccc1N1CCN(C(=O)c2ccccc2NC(=O)c2ccccc2C(=O)O)CC1,6.78
5,Cc1sc2ncnc(N3CCC(C(=O)N(CC(C)C)c4nc5ccccc5s4)CC3)c2c1C,-14.1
6,CCOC(=O)c1ccc(NC2c3ccccc3C(=O)N2c2ccc(C)cn2)cc1 (centres unmarked),6.97
7,O=C(Cn1cc2c(n1)CCCCC2)N1CCc2ccccc2C1,-3.95
8,CCC1Sc2ccccc2N(CC(=O)NC2CC2)C1=O (centres unmarked),7.59
9,O=c1c2cc(Br)ccc2[nH]c(=S)n1-c1ccccc1,27.5
10,CC(C)(C)NC(=O)C(c1cccs1)N(Cc1ccco1)C(=O)c1csnn1 (centres unmarked),-1.46
11,Brc1ccc(-c2csc(N3CCOCC3)n2)cc1,20.7
12,O=C(O)CCCNc1n[nH]c(=O)[nH]c1=O,29.3
13,CC(=O)Nc1ccc(S(=O)(=O)NCCSCc2ccc(Cl)cc2Cl)cc1,7.59
14,Cc1cc(CN(C)C(=O)c2cc(COc3ccc(C)c(C)c3)on2)n[nH]1,-43.8
15,CCOP(=O)(C(NC(=O)c1ccccc1Cl)=C(Cl)Cl)c1ccccc1 (centres unmarked),4.09
16,CCCCn1c(-c2cccc(Br)c2)nc2cc3[nH]c(=O)c(C(C)C)nc3cc21,4.08
17,CCOC(=O)N1CCN(c2c(NCc3ccc(N(C)C)cc3)c(=O)c2=O)CC1,9.96
18,CCOC(=O)c1nnc(-c2ccccc2)nc1N1CCSCC1,-31
19,Cc1ccc(Cl)cc1NS(=O)(=O)c1ccc2oc(=O)ccc2c1,-25.7

row,SMILES,"hERG current change (%, negative = inhibition) at 10uM [%]"
1,CC1=CCC[C@@H]2[C@@](C)(CC/C(C)=C/C(=O)O)[C@H](C)CC[C@@]12C,12.6
2,N/C(=N\OC(=O)c1ccccc1)c1ccncc1,2.02
3,COC(=O)C1=CNC=C(C(=O)OC)C1c1ccccc1Cl,6.02
4,COc1ccc(S(=O)(=O)N[C@@H](Cc2ccc(Cl)cc2)C(=O)N2CC[C@@]3(O)CCCC[C@H]3C2)cc1,-13.9
5,Cc1nnc(N/N=C/c2c(O)n(-c3cccc(C(F)(F)F)c3)c(=O)c3ccccc23)[nH]c1=O,8.06
6,O=C(O)CSCC(=O)NCc1ccccc1,10
7,Cc1nc(SCC(=O)N(C)C2CCS(=O)(=O)C2)c(C#N)c(C)c1C (centres unmarked),-21.7
8,CC(C)CNS(=O)(=O)c1ccc(CCC(=O)N2CCCC2)cc1,24.4
9,O=C(c1ccc(Cl)cc1)N1CCN(c2ncccn2)CC1,6.85
10,CC(C)c1ccc(NC(=O)CCS(=O)(=O)c2cccc3nonc23)cc1,1.81
11,COc1cc(CC(NC(C)=O)C(=O)NC2CCN(C(=O)Nc3ccccc3C)CC2)cc(OC)c1 (centres unmarked),-4.6
12,COc1cc(-c2noc(C)c2/C=C/c2ccc(N)cc2)cc(OC)c1OC,-18.5
13,N#CNC1=NCN(Cc2ccccc2)CN1,12.4
14,COc1ccc(-n2c(C)nc3cc(C(=O)N4CCC5(CC4)OCCO5)ccc32)cc1,-19.9
15,CCCSc1nnc(NC(=O)Nc2ccccc2)s1,24.5
16,Cc1ccc(S(=O)(=O)N2CCCCC2)cc1NC(=O)COc1ccccc1F,-4.42
17,CCOC(=O)c1ccc(NC(=O)c2nc[nH]c2C(=O)NCC(=O)OC(C)(C)C)cc1,19.5
18,CCn1c(=S)sc2c(=O)n(CC(=O)Nc3ccccc3OC)c(C)nc21,1.24
19,COc1ccc(/C=C2\C(=O)N(Cc3ccc(F)cc3)CC(=O)N2Cc2ccccc2)cc1,6.75

row,SMILES,"hERG current change (%, negative = inhibition) at 10uM [%]"
1,CCc1nnc(NC(=O)c2ccc(-c3ccccc3F)o2)s1,11.2
2,O=C(CN1CCN(Cc2ccccc2F)C1=O)NC1CCCC1,1.87
3,COc1ccc(N2Nc3n[nH]c(N)c3N2)cc1,-20.4
4,CCCC1OC23CCCCC2C(C#N)(C(=N)O3)C1(C#N)C#N (centres unmarked),3.08
5,CC(=O)c1oc2ccccc2c1N,4.12
6,CC(Oc1ccccc1Cl)C(=O)/C=C/N(C)C (centres unmarked),25.1
7,COc1ccc(Cn2c(=O)c3[nH]cnc3n(-c3ccccc3C)c2=O)cc1,7.7
8,CC1=C(C(=O)Nc2ccccc2)C(c2ccc(O)cc2)N2C(=O)CSC2=N1 (centres unmarked),3.47
9,COC(=O)/C(C#N)=C/c1c(N2CCN(c3ccc(OC)cc3)CC2)nc2c(C)cccn2c1=O,5.47
10,Cc1cc(SCc2cccc(Cl)c2)nc(=O)[nH]1,14.2
11,Cc1ccc(CNC(=O)C2CCC(=O)N(CCc3cccc(F)c3)C2)cc1 (centres unmarked),-38
12,COc1ccc(C(=O)NCC(c2ccco2)N2CCc3ccccc3C2)cc1 (centres unmarked),-22
13,Cc1ccc(NC(=O)CCC(=O)NNC(=O)COc2cccc3ccccc23)c(C)c1,-0.264
14,CCn1c(SCC(=O)NCc2cccs2)nnc1-c1ccncc1,12.6
15,CSCC[C@H](NC(=O)c1ccc(Br)o1)c1nnc2ccccn12,0.496
16,CCOC(=O)c1c(NC(=O)COc2ccccc2C#N)sc2c1CC(C)(C)NC2(C)C,6.9
17,CC1(C(=O)N2CC3(CC(c4cccc(NC(=O)COc5ccc(Cl)cc5)c4)=NO3)C[C@@H]2C(N)=O)CC1 (some centres unmarked),-10.7
18,O=C(Nc1ccc(C(=O)O)cc1)/C(=C\C=C\c1ccccc1)NC(=O)c1ccccc1Cl,3.39
